In PubChem BioAssay AID686979 (National Center for Advancing Translational Sciences (NCATS), 2013):
Where “and” joins values, the source holds several entries; their conditions need not be identical. Equal entries are not always repeated. Screen size: about 420,000 compounds; about 50,000 (12%) were called active. This list was built around the results that the source calls inconclusive (neither active nor inactive); the mix of calls is not that of the screen. The call rests on the fitted dose curve; in most records, active means well fitted inhibition curve with a large enough effect; inconclusive means small, poorly fitted or top-dose-only effect; inactive means flat fitted curve, though single readings scatter. Potencies of inconclusive entries are left out as doubtful fits.

Assay: qHTS for Inhibitors of human tyrosyl-DNA phosphodiesterase 1 (TDP1): qHTS in cells in presence of CPT; further: nearly all actives have a fitted effect of over 55% in size
Settings: chicken DT40 Tdp1-/-;hTDP1 cells + 20 nM CPT, ATP luminescence, 48 h; activity change, negative = growth inhibition: at 46.2 µM (top of the series) unless noted
From the text: Human tyrosyl-DNA phosphodiesterase 1 (TDP1) is a novel repair gene, and we propose to use it as a new target for anticancer drug development. TDP1 is not an essential protein, but under treatment with topoisomerase I poison (camptothecin: CPT), TDP1 works as a critical factor for cell survival. To directly identify novel TDP1 inhibitors active in a cellular environment, we have knocked-out the Tdp1 gene in chicken DT40 cells (Tdp1-/-) and generated a complemented counterpart cells that contains a stable transfection of the human TDP1 gene (Tdp1-/-;hTDP1 cells). For the primary screen, Tdp1-/-;hTDP1 cells will be exposed to small molecules in the presence or absence of CPT, and their growth kinetics will be evaluated after 48 hours by measuring ATP activity. […] The hit compounds will then be evaluated in the presence or absence of CPT using Tdp1-/- cells. […] In tertiary assays, biochemical gel-based assays will be used to assess whether the hit compounds specifically target TDP1. To this end, we have screened this cell line against the MLSMR in two primary screens. In one screen we add CPT and in the other we screen in the absence of CPT; this AID represents the screen where CPT was present. NIH Chemical Genomics Center [NCGC] NIH Molecular Libraries Probe Centers Network [MLPCN] MLPCN Grant: MH095538 Assay Submitter (PI): Yves Pommier, NCI
DT40-hTDP1 cells with 20 nM Camptothecin (add 20 microL of 1 mM CPT stock in 1 L of cell culture medium) were dispensed at 400 cells/5microL/well in tissue culture treated 1536-well white wall/solid bottom assay plates (Greiner Bio-One North America, NC, U.S.A.) using a Multidrop Combi 8 channel dispenser (Thermo Fisher, Waltham, MA, USA). 23 nL compounds and controls were transferred using the pin tool (Kalypsys, San Diego, CA, USA) to the assay plates. The assay plates were then incubated at 37 masculineC for a minimum 48 hr. Three microL of Cell Titer Glo solution was added to the plates and incubated at RT in dark for 30 min. Luminescence was read using ViewLux (Perkin Elmer) with 1 sec exposure slow speed, high gain and 2x binning.
On the % scale 0 is the no-effect control and ±100 the full control effect; potency means the concentration at half of the fitted maximal effect; tags describe the fitted curve by direction and shape.

Row | Structure (SMILES) | Potency | activity change, negative = growth inhibition
1 | COc1ccc(Cl)cc1NC(=O)C1CCN(c2ncnc3c2nc2n3CCCCC2)CC1 | active: 16.4 µM | –
2 | CCOC(=O)c1c(NC(=O)CN2CCCCC2)sc(CN(C)C)c1-c1ccccc1 | inconclusive [inhibitor, single point] | –
3 | CCN(CC)c1ccc(NC(=O)c2cnn3c(C(F)F)cc(-c4ccccc4)nc23)cc1 | inconclusive [inhibitor, single point] | –
4 | COCC(C)(C)COS(N)(=O)=O | inactive | –
5 | Cc1ccccc1-c1cnc(C(O)c2ccc(-c3ccccc3)cc2)[nH]1 (stereo not drawn) | inconclusive [inhibitor, single point] | –
6 | O=C(Nc1cccc(C(F)(F)F)c1)C(Sc1ncnc2ccccc12)c1ccccc1 (stereo not drawn) | inconclusive [inhibitor, single point] | –
7 | CCN1C(=O)[C@@H]2[C@@H](c3ccc(-c4ccc5c(c4)OCO5)c(OC)c3)N3CCCC[C@@]3(C(=O)OC)[C@@H]2C1=O | inconclusive [inhibitor, single point] | –
8 | CCN1CCN(S(=O)(=O)c2ccc(Cl)c(C(=O)NC3CCC(C)CC3)c2)CC1 (stereo not drawn) | inconclusive [inhibitor, single point] | –
9 | CCCn1c(N2CCOCC2)nc2c1c(=O)[nH]c(=O)n2C | inactive | –
10 | CCOc1ccccc1C(=O)OCC(=O)Nc1nnc(-c2ccccc2)o1 | inconclusive [inhibitor, single point] | –
11 | O=C(Nc1ccc2c(c1)OCCO2)C(=S)NCc1ccccc1 | inactive | –
12 | CC(C)(C)c1ccc(OCCC(=O)Nc2cccc(S(=O)(=O)N3CCCCC3)c2)cc1 | inconclusive [inhibitor, single point] | –
13 | CS(=O)(=O)N1CCCCC1c1cc(C(=O)Nc2ccccc2)no1 (stereo not drawn) | inactive | –
14 | O=C(C1CCCN(S(=O)(=O)c2cc(Cl)ccc2Cl)C1)N1CCCC1 (stereo not drawn) | inconclusive [inhibitor, single point] | –
15 | Cn1c(-c2ccccc2[N+](=O)[O-])[n+](C)c2ccccc21 | active: 13 µM | –
16 | Cc1cccc(C)c1Cn1c(C)c(C(=O)NCc2ccc([N+](=O)[O-])cc2)sc1=O | inconclusive [inhibitor, single point] | –
17 | Cn1c(=O)cc(NCCc2ccccc2)[nH]c1=O | active: 7.31 µM | –
18 | COc1ccc(-c2nc3ccc(C(=O)NCC(OC)OC)cc3nc2-c2ccc(OC)c(OC)c2)cc1OC | inconclusive [inhibitor, partial curve] | –
19 | CCC(c1nnnn1Cc1ccc(F)cc1)N1CCN(C2CCCCC2)CC1 (stereo not drawn) | inconclusive [inhibitor, single point] | –
20 | COC(=O)C1CCN(C(=O)Cc2c(OC)ccc3cc(Br)ccc23)CC1 | active: 18.4 µM | –
21 | O=C1CC(=C(c2ccccc2)c2ccccc2)C(=O)N1CCCCN1CCN(c2ccccc2)CC1 | active: 14.6 µM | –
22 | CCN(CC(=O)Nc1cccc(OC)c1)CC(=O)Nc1ccc(Br)c(C)c1 | inconclusive [inhibitor, partial curve] | –
23 | Cc1cc(N2CCCCC2)nc2ccc(NC(=O)c3ccc(F)cc3)cc12 | active: 20.6 µM | –
24 | O=C(OCn1nnc2ccccc2c1=O)c1ccc(F)c(S(=O)(=O)N2CCOCC2)c1 | inactive | –
25 | Cc1cc(=O)[nH]c(-c2ccc(C(F)(F)F)cc2)n1 | inconclusive [inhibitor, single point] | –

Row | Structure (SMILES) | Potency | activity change, negative = growth inhibition
26 | c1cc(-c2ccc(N3CCOCC3)cc2)n2ccnc2c1 | – | inconclusive: -30.9% [inhibitor]
27 | CCOC(=O)Nc1ccc2c(c1)N(C(=O)CN(CC)CC)c1ccccc1C=C2 | inconclusive [inhibitor, single point] | –
28 | CCOC(=O)C1CCN(C(=O)c2ccccc2NC(=O)C2=C(C)OCCS2)CC1 | inactive | –
29 | CCOc1ccc(C(=O)Nc2ccc(S(=O)(=O)N(Cc3ccccc3)c3ccccc3)cc2)cc1 | active: 5.8 µM | –
30 | Nc1nc(=S)c2[nH]cnc2[nH]1 | active: 2.66 µM and active: 2.11 µM and active: 2.59 µM | –
31 | Cc1ccc(-c2nc3ccc(Cl)cc3c(=O)n2O)cc1 | inconclusive [inhibitor, single point] | –
32 | O=C(c1ccco1)N1CCN(c2ncnc3sc4c(c23)CCC4)CC1 | inconclusive [inhibitor, single point] | –
33 | Cc1cc(C)cc(OCC(=O)Nc2cccc(-c3nc4ncccc4o3)c2)c1 | active: 23.1 µM | –
34 | Cc1occc1-c1nnc(SCC(=O)Nc2ccccc2-c2ccccc2)n1C | inconclusive [inhibitor, single point] | –
35 | C=CCNc1nc(-c2ccccn2)nnc1-c1ccccc1 | inconclusive [inhibitor, single point] | –
36 | O=C(NC1CCCCC1)c1cc(C2CC2)nn1-c1ccccc1 | active: 16.4 µM | –
37 | CC(CNC(=O)Cn1ncc2c3ccccc3n(Cc3cccc(Cl)c3)c2c1=O)c1ccccc1 (stereo not drawn) | active: 18.4 µM | –
38 | Cc1ccc(NC(=O)CNC(=O)c2sc3ccccc3c2Cl)nc1 | inactive | –
39 | COC(=O)[C@H](C)NC(=O)c1cc2c(cn1)[nH]c1ccccc12 | active: 18.4 µM | –
40 | Cc1ccccc1OCC(=O)OCC(=O)Nc1ncc(Cl)c(C)c1Cl | inactive | –
41 | CCC1(c2ccc(C)cc2)NC(=O)N(CC(=O)Nc2cccc(S(=O)(=O)N3CCCC3)c2)C1=O (stereo not drawn) | inconclusive [inhibitor, single point] | –
42 | COCCNC(=O)CSc1nc(-c2ccc(F)cc2)[nH]c1-c1ccc(Cl)cc1 | inconclusive [inhibitor, single point] | –
43 | COc1ccc2[nH]c3c(c2c1)CCN1C(=O)N([C@@H](C)C(=O)NC2CCN(Cc4ccccc4)CC2)C(=O)[C@]31C | active: 16.4 µM | –
44 | CN(C(=O)CSc1nc2ncccc2o1)c1ccc(F)cc1 | inactive | –
45 | CC(C)(C)NC(=O)C(c1ccccc1F)n1c(=O)c(-c2ccco2)nc2ccccc21 (stereo not drawn) | inconclusive [inhibitor, single point] | –
46 | O=C(OCC(=O)N1CCc2ccccc2C1)c1cccc([N+](=O)[O-])c1 | inactive | –
47 | Nc1ccccc1Nc1cc(-c2ccccc2)nn1-c1cccc(Cl)c1 | inactive | –
48 | CCn1cc(CN2CCC(C(=O)Nc3cccc(-c4cccc(Cl)c4)c3)CC2)c(C)n1 | active: 13 µM | –
49 | Cc1noc(C)c1CSc1nnnn1-c1ccc(Cl)cc1 | inconclusive [inhibitor, partial curve] | –
50 | COc1ccc(NC(=S)NN2CCOCC2)cc1OC | inactive | –

Row | Structure (SMILES) | Potency | activity change, negative = growth inhibition
51 | O=C(c1ccco1)N1CCN(c2ccc([N+](=O)[O-])cn2)CC1 | inconclusive [inhibitor, partial curve] | –
52 | C/C=C/C=C(/NC(=O)c1ccccc1)C(=O)Nc1ccccc1 | inactive | –
53 | Cc1ccc(N(C)S(=O)(=O)c2cccc(C(=O)NC3=NCCS3)c2)cc1 | inconclusive [inhibitor, single point] | –
54 | O=C(Cn1nc(-c2ccccc2)c2ccccc2c1=O)Nc1ccc(O)cc1 | inactive | –
55 | COc1ccccc1N1CCN(S(=O)(=O)c2ccc(-c3cc(C(F)(F)F)on3)s2)CC1 | inconclusive [inhibitor, single point] | –
56 | N#Cc1c(NC(=O)/C=C/c2ccco2)sc2c1CCCC2 | active: 0.231 µM | –
57 | COC(=O)Cn1c(=NC(=O)CSC(C)=O)sc2ccccc21 | inconclusive [inhibitor, single point] | –
58 | CCOc1ccc(Nc2nc(-c3sc(N)nc3C)cs2)cc1 | inconclusive [inhibitor, single point] | –
59 | COc1ccc(CCCNC(=O)C2Cc3c(-c4ccc5c(c4)OCO5)ccnc3O2)cc1 (stereo not drawn) | inconclusive [inhibitor, single point] | –
60 | COc1ccc(-c2nc3ccc(C(=O)NCC(OC)OC)cc3nc2-c2ccc(OC)cc2)cc1 | active: 10.3 µM | –
61 | O=C(CSc1nc2cc3ccccc3cc2[nH]1)Nc1cccc(C(F)(F)F)c1 | active: 18.4 µM | –
62 | CCCOc1ccc(F)cc1-c1cc(C(=O)NCc2ccccc2OC)[nH]n1 | inconclusive [inhibitor, single point] | –
63 | Cc1ccc(NC(c2ccccc2)c2nc3ccccc3[nH]c2=O)cc1 (stereo not drawn) | inconclusive [inhibitor, single point] | –
64 | CCOC(=O)C[C@H]1c2ccc(C(F)(F)F)cc2S(=O)(=O)N1c1ccccc1 | inconclusive [inhibitor, single point] | –
65 | CC(O)c1nc2ccccc2n1C1CCCCC1 (stereo not drawn) | inconclusive [inhibitor, single point] | –
66 | COCc1cc(C)nc2sc3c(c12)NC(c1ccc(NC(C)=O)cc1)N(c1ccc(C)cc1)C3=O (stereo not drawn) | inconclusive [inhibitor, single point] | –
67 | Cc1ccc(-c2cc(-c3ccc(Cl)cc3)c(C#N)c(N)n2)o1 | active: 6.51 µM | –
68 | CCOc1cc(/C=N/NC(N)=O)cc(Br)c1OCC(=O)Nc1ccccc1C | inconclusive [inhibitor, single point] | –
69 | CCN(c1ccccc1)c1nnc(NC(=O)Nc2cccc(C(F)(F)F)c2)s1 | inactive | –
70 | COC(=O)Nc1[nH]ncc1[N+](=O)[O-] | inactive | –
71 | NNC(=O)C(Cc1cnc[nH]1)NC(=O)OCc1ccccc1 (stereo not drawn) | inactive | –
72 | O=[N+]([O-])c1ccc(Oc2cccc(C(F)(F)F)c2)nc1 | active: 13 µM | –
73 | Cc1ccc(N=C2NC(=O)/C(=C/c3cccnc3)S2)c(C)c1 | inactive | –
